# Measurements taken from PubChem BioAssay AID463173 (ICCB-Longwood Screening Facility, Harvard Medical School, 2010).
# Screen size: about 52,000 compounds; about 4,300 (8.3%) were called active. Cut-off read from the data, not from the text of the source: active = survival mostly below about 52% (no sharp cut-off); inactive = mostly above about 56%. The list shows a part of the results.
# Tested on: DeltatarO mutant
# Assay: S. aureus survival, RN4220 and DeltatarO strains – OD600, teichoic acid synthesis inhibitors, primary screen (AID 463173)
# Details: S. aureus RN4220 wild type/DeltatarO growth, OD600, 18 h, stronger effect = lower value, screened at 18.75 µg/mL (by protocol)
row,SMILES,survival
1,Cc1ccc(Cl)cc1NC(=O)CCS(=O)(=O)c1ccc2c(c1)n(C)c(=O)c(=O)n2C,inactive: 86%
2,Cc1nn(CC(=O)N2CCCCC2)c(=O)c2cc3occc3n12,inactive: 109%
3,Cc1ccc(C2C(C#N)=C(N)OC3=C2C(=O)CC(C)(C)C3)s1 (stereo unspecified),inactive: 69%
4,CCc1ccc(C2CC(=O)Oc3c2c(=O)n(C)c2ccccc32)cc1 (stereo unspecified),inactive: 65%
5,COc1ccc(N(C)C(=O)c2cc(S(=O)(=O)N3CCc4ccccc43)cn2C)c(OC)c1,inactive: 101%
6,Cc1cccc(-c2nc(C(N)=O)c3c(n2)n(-c2ccc4c(c2)OCO4)c(=O)n3C)c1,inactive: 90%
7,Cn1c(=O)c2nc(SCC(=O)Nc3ccc(Cl)c(Cl)c3)n(C)c2n(C)c1=O,inactive: 74%
8,Cc1cc(C)cc(NC(=O)Cn2cc(C(=O)c3ccccc3)c(=O)c3ccc(C)nc32)c1,inactive: 75%
9,Cc1ccc(CN(Cc2ccco2)c2cnc(S(C)(=O)=O)nc2C(=O)Nc2ccccc2Br)o1,inactive: 44%
10,O=C(CSc1oc(-c2ccccc2)nc1S(=O)(=O)c1ccccc1)c1ccccc1,inactive: 148%
11,CC1CCCCN1C(=O)CSc1nc2ccccc2c(=O)[nH]1 (stereo unspecified),inactive: 82%
12,COc1cccc(NC(=O)c2ccc3nc(Cc4ccccc4)oc3c2)c1,inactive: 66%
13,COc1ccc(-c2cc(C(=O)Nc3sc4c(c3C#N)CCCC4)no2)cc1OC,inactive: 63%
14,CCc1ccc(-n2c(SCc3cccc(F)c3)nc3[nH]ncc3c2=O)cc1,inactive: 80%
15,O=C1CSC2(CCCCC2)N1c1ccc(Cl)cc1,inactive: 90%
16,CC(NC(=O)C1CCN(S(=O)(=O)c2ccc3nc4c(c(C(=O)O)c3c2)CCCC4)CC1)c1ccccc1 (stereo unspecified),inactive: 122%
17,CC(C)Cn1cc(NC(=O)NCc2ccccc2Cl)c2ccccc2c1=O,inactive: 95%
18,Cc1nnc(NC(=O)C(=O)c2cc(C)n(-c3ccc(C)c(C)c3)c2C)s1,inactive: 100%
19,Nc1cc(N)nc(SCc2ccccc2C(F)(F)F)n1,inactive: 79%
20,Cc1ccc(C(=O)Nc2ccc3oc(-c4ccncc4)nc3c2)c(Cl)c1,inactive: 62%
21,Cc1cccc(-n2c(=O)c3c(c4cc(C)ccc4n3C)n(CC(=O)Nc3ccc(C)cc3C)c2=O)c1,inactive: 69%
22,COc1ccc(-c2cn3c(n2)sc2cc(C(=O)Nc4cc(OC)cc(OC)c4)ccc23)cc1,inactive: 79%
23,N#Cc1c(NC(=O)CS(=O)(=O)c2ccc(Cl)cc2)sc2c1CCCCC2,inactive: 81%

row,SMILES,survival
1,COc1ccc(-c2ccc(CCC(=O)O)n2CC(=O)Nc2cccc(C(F)(F)F)c2)cc1,active: 54%
2,Cc1nn(-c2ccccc2)c(OC(=O)C(C)(C)C)c1Sc1ccccc1,inactive: 62%
3,Cc1ccc2nc(NCCc3ccccc3)c3nncn3c2c1,inactive: 92%
4,Cc1ccc(Cn2c(SCc3ccc(C(=O)NC4CCCC4)cc3)nc3ccncc32)cc1,inactive: 70%
5,CCn1c(=O)cc(OCC(=O)Nc2ccc(C)c(F)c2)c2ccccc21,inactive: 60%
6,O=c1oc2ccccc2cc1-c1cn2cc(Cc3ccccc3F)sc2n1,active: 49%
7,Cc1ccc(-n2c(-c3ccco3)nc3c(cnn3-c3ccccc3C)c2=O)cc1,inactive: 124%
8,COc1ccc(CN2C(=O)N(c3ccc(C)cc3)C(=O)C2CC(=O)Nc2ccccc2)cc1OC (stereo unspecified),inactive: 80%
9,O=[N+]([O-])c1cc(-c2nc(-c3ccccc3)no2)ccc1NC1CCCC1,inactive: 105%
10,COc1ccc(N2CCN(C(=O)c3ccc4c(Cl)c5c(nc4c3)CCCC5)CC2)cc1,inactive: 103%
11,CCOc1ccccc1NC(=O)NC1CC2CCCC(C1)N2Cc1nnnn1CCc1ccccc1 (stereo unspecified),inactive: 85%
12,CCOC(=O)c1c(NC(C)=O)c2c3c(sc2n1Cc1nc(-c2cccc(C)c2)oc1C)CCCC3,inactive: 93%
13,Cc1ccc2nsnc2c1S(=O)(=O)N1CCCC1,inactive: 106%
14,COc1cc(-c2cc(OC)c3c(C)oc(C)c3c(=O)c2)ccc1OC(=O)c1ccccc1F,inactive: 89%
15,COc1ccccc1-c1nc(CNC(=O)Nc2ccccc2)c(C)o1,inactive: 98%
16,COc1ccccc1C(=O)NC1=NC(c2ccc(Br)cc2)CC(=O)N1 (stereo unspecified),inactive: 34%
17,CCOc1ccc(S(=O)(=O)Nc2cc(Cl)ccc2OC)c2cccnc12,inactive: 69%
18,Cc1ccc(/C=C/c2onc(C)c2S(=O)(=O)N2CCC(C(=O)Nc3cc(F)ccc3F)CC2)cc1,inactive: 73%
19,O=C(CC(c1ccc(Cl)cc1)S(=O)(=O)c1ccccc1)c1ccco1 (stereo unspecified),inactive: 88%
20,CCc1nn(CC(=O)NCCCOC)c(=O)c2cc3ccccc3n12,inactive: 96%
21,Cc1ccc(CN2CCCn3nc(C(=O)NCC(C)c4ccccc4)cc3C2=O)cc1 (stereo unspecified),inactive: 95%
22,COc1ccc(Nc2oc(/C=C/c3ccc(OC)c(OC)c3)nc2C#N)cc1,inactive: 73%
23,COCCn1c(=O)[nH]c2cc(C(=O)Nc3cccc(C(C)=O)c3)ccc2c1=O,inactive: 81%

row,SMILES,survival
1,Cc1cc(C)c2oc(C(=O)Nc3ccc(S(=O)(=O)Nc4nccc(C)n4)cc3)cc(=O)c2c1,inactive: 61%
2,CCCCOC(=O)c1ccc(Nc2nnc(-n3nc(C)cc3C)c3ccccc23)cc1,inactive: 98%
3,Cc1nnc2c3ccccc3nc(Nc3cccc(O)c3)n12,inactive: 101%
4,COc1cc(C2C(C(=O)Nc3ccccc3)=C(C)Nc3nnnn32)cc(OC)c1OC (stereo unspecified),inactive: 74%
5,COc1ccc(-c2noc(CN(C(=O)c3cc(OC)c(OC)cc3OC)C(C)C)n2)cc1,inactive: 74%
6,O=C(NC1CC(=O)N(c2ccc(Cl)cc2)C1)c1ccc(S(=O)(=O)N2CCOCC2)cc1 (stereo unspecified),inactive: 74%
7,O=C(O)CCC1NC(=O)NC1=O (stereo unspecified),inactive: 101%
8,CCOC(=O)c1ccc(NC(=O)c2nc(SCc3ccccc3F)ncc2Cl)cc1,inactive: 49%
9,Cc1ccc(Cl)cc1NC(=O)C1CCN(c2nc3ccccc3n3cccc23)CC1,inactive: 62%
10,CCCn1c2ccccc2c2cnn(CC(=O)NCCc3ccc(C)cc3)c(=O)c21,inactive: 128%
11,CCOc1ccc2nc(N3CCCC(C(=O)NCc4ccccc4OC)C3)sc2c1 (stereo unspecified),inactive: 92%
12,COc1ccc(NC(=O)CC2C(=O)N(c3cccc(OC)c3)C(=O)N2Cc2ccc3c(c2)OCO3)cc1 (stereo unspecified),inactive: 82%
13,Cc1ccc(-c2cn(-c3ccc(Cl)cc3)c(S(=O)(=O)CC(=O)Nc3ccccc3)n2)cc1,inactive: 62%
14,Cc1cc(C)cc(-n2ccn(Cc3ccc(F)cc3)c(=O)c2=O)c1,inactive: 71%
15,CCOc1ccc(S(=O)(=O)NCCc2sc3nc(-c4ccc(C)cc4)nn3c2C)cc1,inactive: 109%
16,CCCn1c(CCC(=O)Nc2ccccc2OC)nc2cccnc21,inactive: 88%
17,Cc1cccc(C)c1Nc1c(-c2ccc(O)cc2)nc2sccn12,active: 28%
18,O=c1oc2ccccc2cc1-c1cn2cc(Cc3ccc(Br)cc3)sc2n1,inactive: 66%
19,Cc1cc(-c2ccccc2)c(C#N)c(N)n1,inactive: 74%
20,Fc1ccc(Br)cc1C1C=C(c2ccc(Br)cc2)Nc2nnnn21 (stereo unspecified),inactive: 91%
21,CC1=Nc2cc(C(=O)NC(C)C)ccc2Sc2ccc(C)cc21,inactive: 73%
22,CC(C)NC(=O)C1CCN(C(=O)c2ccc(Cl)cc2)CC1,inactive: 88%
23,Cc1ccc(CNC(=O)CCCN2C(=O)COc3ccc(C)cc32)cc1,inactive: 85%

row,SMILES,survival
1,CN(C)/C(=N\O)c1nonc1N,inactive: 80%
2,O=C(CC1N=C2c3ccccc3N=C(SCC(=O)Nc3ccccc3F)N2C1=O)NCc1cccs1 (stereo unspecified),inactive: 91%
3,Cc1cccc(NC(=O)C(=O)NCCc2csc(-c3ccc(C(F)(F)F)cc3)n2)c1C,inactive: 102%
4,Cc1cc(C)cc(NC(=O)C2CCN(S(=O)(=O)c3cccc(-c4noc(C)n4)c3)CC2)c1,active: -5%
5,Cc1cc(NC(=O)CSc2ccccc2)no1,inactive: 88%
6,CCc1ccc(CN(C(=O)c2cc(=O)c3ccc(C)cc3o2)C2CCS(=O)(=O)C2)cc1 (stereo unspecified),inactive: 107%
7,O=C(O)c1cccc(N=NN2CCOCC2)c1,inactive: 80%
8,CC(C)Cn1c(=O)c2sccc2n2c(CCCC(=O)NC3CCCCC3)nnc12,inactive: 107%
9,COc1cccc(CNC(=O)CCCn2nc(C)c3c(C)n(-c4ccc(C)cc4)nc3c2=O)c1OC,inactive: 88%
10,CCN(CC)CCNC(=O)c1ccc(-n2c(-c3ccccc3)cc3c2CCCC3)cc1,active: 8%
11,CN(C)S(=O)(=O)c1ccc2c(c1)C(CC(=O)O)OC2=O (stereo unspecified),inactive: 99%
12,Cc1ccc(NC(=O)c2c(NC(=O)c3ccccc3)sc3c2CCC3)cc1,inactive: 76%
13,Cc1ccc2sc(N(Cc3cccnc3)C(=O)C3COc4ccccc4O3)nc2c1C (stereo unspecified),inactive: 76%
14,CC1CCc2c(sc(NC(=O)c3cc(-c4ccc(F)cc4)on3)c2C(N)=O)C1 (stereo unspecified),inactive: 74%
15,Cc1c(C#N)c2ccccc2n1CC(=O)NC1CCCCCC1,inactive: 72%
16,Cc1c(C(=O)NCc2ccc(OC(C)C)cc2)sc2ncnc(N(C)C3CCCCC3)c12,inactive: 98%
17,CC1=Nc2cc(C(=O)N3CCCCC3)ccc2Sc2ccc(C)cc21,inactive: 48%
18,COc1ccccc1CCNC(=O)CCCn1c(=O)c2cccn2c2cccnc21,inactive: 92%
19,COc1ccc(-c2nc(CN3CCC(C(=O)NCc4ccc(F)cc4)CC3)c(C)o2)cc1OC,inactive: 101%
20,CCCC(=O)Nc1nnc(SCc2cc(=O)n3cccc(C)c3n2)s1,inactive: 82%
21,COc1ccc(CNC(=O)Cn2ncc3c(=O)oc4ccc(C)cc4c32)c(OC)c1,inactive: 107%
22,Cc1cc(=O)n2[nH]c(NC(=O)c3cccc(Cl)c3)nc2n1,inactive: 101%
